Measurements from PubChem BioAssay AID1030 (National Center for Advancing Translational Sciences (NCATS), 2008).
Screen size: about 220,000 compounds; about 16,000 (7.3%) were called active. Inconclusive results, whose numbers are uncertain, are shown with a selection of clear calls. Calls follow the shape of the dose curve; as a rule, active = well fitted inhibition curve with a large enough effect (not every such curve was filed as active); inconclusive = small, poorly fitted or top-dose-only effect, or another doubt; inactive = no such curve, though single readings can be large or run the other way. Potencies of inconclusive entries are left out as doubtful fits.

Biological target: Aldehyde dehydrogenase 1A1 (Homo sapiens) (UniProt P00352)
Chain of UniProt P00352 (P00352 whole entry, looked up): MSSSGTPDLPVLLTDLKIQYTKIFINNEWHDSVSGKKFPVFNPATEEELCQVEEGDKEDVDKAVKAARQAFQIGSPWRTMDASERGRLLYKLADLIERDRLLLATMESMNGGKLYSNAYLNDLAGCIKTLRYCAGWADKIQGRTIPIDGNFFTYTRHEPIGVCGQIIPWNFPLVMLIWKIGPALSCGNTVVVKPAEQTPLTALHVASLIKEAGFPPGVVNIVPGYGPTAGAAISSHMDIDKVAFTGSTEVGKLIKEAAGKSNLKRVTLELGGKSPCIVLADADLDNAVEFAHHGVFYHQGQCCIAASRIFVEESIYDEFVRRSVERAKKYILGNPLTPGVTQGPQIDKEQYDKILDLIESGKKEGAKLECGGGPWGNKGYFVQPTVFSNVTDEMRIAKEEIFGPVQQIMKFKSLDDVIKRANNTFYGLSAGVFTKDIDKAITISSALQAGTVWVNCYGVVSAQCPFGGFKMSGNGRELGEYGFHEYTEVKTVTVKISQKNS
Assay: qHTS Assay for Inhibitors of Aldehyde Dehydrogenase 1 (ALDH1A1)
Conditions: Purified ALDH1A1, NADH fluorescence, propionaldehyde substrate; series mostly up to 75.3 µM
Potency is read from the fitted curve at half-maximal effect; tags tell the direction and shape of the fitted curve.

Compound | Potency
Fc1cccc(C[n+]2csc3ccccc32)c1 | active: 0.355 µM
CSc1nsc(/C=C/Nc2ccc(O)cc2C)c1C#N | active: 25.1 µM
CCn1cc(CN2CCN(Cc3ccc(C)o3)C(CCO)C2)c2ccccc21 (centres undefined) | inconclusive [inhibitor, single point]
CC(=O)c1c(C)[nH]c(C2=NNC(=NCc3ccccc3)SC2)c1C | active: 28.2 µM
COc1cc(-c2nc(CN3CCCN(C(=O)c4ccco4)CC3)c(C)o2)ccc1F | inconclusive [inhibitor, single point]
COc1cc2c(C(=O)N3CCN(c4cccc(Cl)c4)CC3)cn(CC(C)C)c(=O)c2cc1OC | inconclusive [inhibitor, partial curve]
COc1ccc(C)c2sc(=NC(=O)c3ccccc3)n(C)c12 | inconclusive [inhibitor, single point]
Fc1ccccc1CSc1nc2ccccc2[nH]1 | active: 12.6 µM
Cc1ccc2cc(/C=N/NC(=O)CN3CCCCC3)c(Cl)nc2c1 | inconclusive [inhibitor, partial curve]
CC(=O)Oc1ccc(N2C(=O)C3C(C2=O)C2C=CC3C23CC3)cc1[N+](=O)[O-] (centres undefined) | active: 7.94 µM
COc1cc(C(=O)N2CCN(c3cccc(C)c3C)CC2)cc(OC)c1OC | inactive
C/C(=N/Nc1nc(-c2ccccc2)cc(-c2ccccc2)n1)c1ccc(N)cc1 | inactive
COc1ccc2oc(=O)c(/C(C)=N/Nc3ccccc3)cc2c1 | inconclusive [inhibitor, single point]
O=C(CSc1ncccc1-c1nc2ccccc2[nH]1)Nc1ccc2c(c1)OCCO2 | inconclusive [inhibitor, single point]
CC(=O)c1ccc(NC(=O)c2ccc3nc(-c4ccco4)c(-c4ccco4)nc3c2)cc1 | active: 3.16 µM
CC(=O)c1c(C)nn(C(=O)c2cccs2)c1C | inconclusive [inhibitor, single point]
C/C(CC(=O)Nc1cc(C)ccn1)=N\NC(=O)c1ccccc1C | inconclusive [inhibitor, partial curve]
O=C(NC(=S)Nc1ccc(NC(=O)c2cccs2)cc1)c1ccco1 | inconclusive [inhibitor, single point]
CCC(=O)Nc1cccc(NC(=O)c2ccccc2Cl)c1 | inactive
O=C(C1CCC(CNc2c(N3CCCCC3)c(=O)c2=O)CC1)N1CCc2ccccc2C1 (centres undefined) | inactive
O=C(CCCNS(=O)(=O)c1cccc2nsnc12)NCc1ccc(F)cc1 | inconclusive [inhibitor, single point]
O=C(NCc1ccccc1F)c1cccs1 | inactive
Cc1cc(/C=C(\C#N)C(N)=O)c(C)n1-c1ccc(N2CCOCC2)c([N+](=O)[O-])c1 | inconclusive [inhibitor, single point]
Cn1c(C(=O)NCCCN2CCOCC2)cc2c(=O)n(C)c3ccccc3c21 | inconclusive [inhibitor, single point]
CNc1ncnc2ccc(-c3ccccc3OC)cc12 | inconclusive [inhibitor, partial curve]

Compound | Potency
CN(C)S(=O)(=O)c1ccc(Nc2ccc(-c3ccc4c(c3)OCCO4)nn2)cc1 | inconclusive [inhibitor, single point]
COC(=O)C1C(O)=CC(=O)CC1C (centres undefined) | inconclusive [inhibitor, single point]
Cc1ccc(C(=O)Nc2ncc(C)s2)o1 | inactive
Cc1ccccc1NC(=S)NC(NC(=O)N(C)C)C(Cl)(Cl)Cl (centres undefined) | inconclusive [inhibitor, single point]
O=C1N=C(N2CCOCC2)S/C1=C/c1cc2c(cc1[N+](=O)[O-])OCO2 | inconclusive [inhibitor, single point]
O=C(N/N=C/c1cccc(OC(=O)c2ccco2)c1)c1ccc(F)cc1 | inconclusive [inhibitor, single point]
COc1ccc(Nc2nc(N)nc(CCl)n2)cc1 | inconclusive [inhibitor, single point]
N#CCO/N=C/C(=O)Nc1ccc(F)cc1F | inconclusive [inhibitor, single point]
O=[N+]([O-])c1ccc(NCCNCCOc2nonc2-c2ccccc2)c([N+](=O)[O-])c1 | inconclusive [inhibitor, single point]
Cc1cc(C(=O)OCC(=O)N2CC(=O)Nc3ccccc32)c(C)n1-c1ccc(F)cc1 | inconclusive [inhibitor, single point]
O=C1CC(Nc2ccc(N3CCOCC3)cc2)C(=O)N1c1cccc(C(F)(F)F)c1 (centres undefined) | active: 8.91 µM
CCOc1ccccc1NC(=S)N1CCN(c2nc(-c3cccc(OC)c3)cs2)CC1 | inactive
c1ccc(CSc2ncnc3c2sc2nc(N4CCOCC4)c4c(c23)CCCC4)cc1 | inconclusive [inhibitor, single point]
N#Cc1c(N2CCN(C(=O)c3ccccc3)CC2)nc(-c2ccccc2)c2c1CCCC2 | inconclusive [inhibitor, partial curve]
CC1=C(C(=O)OC(C)C)C(c2coc3ccccc3c2=O)C2=C(CCCC2=O)N1 (centres undefined) | inactive
Cc1ccc(N(CC(=O)NCc2ccncc2)S(C)(=O)=O)cc1 | inconclusive [inhibitor, single point]
C/C=C/C=C/C(=O)Nc1nccs1 | inactive
O=C(O)c1c[nH]c2cc(C(F)(F)F)ccc2c1=O | inconclusive [inhibitor, single point]
COc1ccc2c(c1)O[C@@H](c1cccc(C(F)(F)F)c1)[C@H](OC(=O)N[C@H](C)C1CCCCC1)C2=O | inactive
O=C(CSc1c[nH]c2ccccc12)NCc1ccc2c(c1)OCO2 | inactive
COc1ccccc1COn1c(=O)c(-c2ccco2)[n+]([O-])c2ccccc21 | active: 22.4 µM
COc1ccc(NC(=O)N2CCN(S(C)(=O)=O)CC2)cc1 | inactive
CCC(=O)c1c[nH]c(C(=O)NCc2cccnc2)c1 | inactive
CCOC(=O)C1=C(CSc2n[nH]c(N)n2)NC(=O)NC1C (centres undefined) | inactive
Cc1cccc(NC(=O)NNC(=O)c2cc(-c3ccccc3Cl)nc3ccccc23)c1 | inconclusive [inhibitor, partial curve]

Compound | Potency
CCCCOC(=O)Cn1c(=O)c2c(nc3n2CCCCN3c2ccc(C)cc2)n(C)c1=O | inconclusive [inhibitor, single point]
O=C(Cn1cnc2c(nnn2Cc2ccccc2)c1=O)NCc1ccco1 | inactive
COc1ccc2cc(C(=O)C3CCCN(C(=O)c4snnc4C)C3)ccc2c1 (centres undefined) | inconclusive [inhibitor, partial curve]
COc1ccc(CC(=O)NCC(=O)N/N=C(/C)c2ccco2)cc1 | inactive
COc1cc(COCC(O)CN2CCc3ccccc3C2)cc(OC)c1OC (centres undefined) | inactive
O=C(CN(Cc1ccco1)C(=O)Cn1nnc(-c2ccc(F)cc2)n1)NC1CCCC1 | inactive
CC1(C)OC(=O)C(=CNc2cccc(O)c2)C(=O)O1 | inconclusive [inhibitor, single point]
CC(=O)Nc1ccc(S(=O)(=O)NCC(=O)OCc2cc(=O)oc3ccc4ccccc4c23)cc1 | inconclusive [inhibitor, partial curve]
Cc1ccc(C2c3c(oc4ccccc4c3=O)C(=O)N2c2nnc(C(C)C)s2)o1 (centres undefined) | inconclusive [inhibitor, single point]
Cc1cn2c(-c3ccncc3)nnc2s1 | inconclusive [inhibitor, single point]
CN1CCN(NC(=S)Nc2ccc(OC(F)F)cc2)CC1 | inactive
COCCNC(=S)N/N=C/c1ccc(N2CCOCC2)cc1 | inconclusive [inhibitor, single point]
COCCn1c(C)cc(C2=NNC(=NC(C)(C)C)SC2)c1C | inconclusive [inhibitor, single point]
O=S(=O)(c1ccc(NC(=S)NC2CC2)cc1)N1CCOCC1 | inconclusive [inhibitor, single point]
Nc1c(C(=O)O)sc2nc(-c3ccccc3)cc(-c3ccccc3)c12 | active: 20 µM
COc1ccc(NC(=O)C(c2cc3c(cc2[N+](=O)[O-])OCO3)N(C)C)cc1 (centres undefined) | inconclusive [inhibitor, single point]
N#CC1=C(N)Oc2cc(N)ccc2C1c1ccc(F)cc1 (centres undefined) | inactive
CNc1nc(-c2ccc3c(c2)CCN3C(=O)c2ccccc2C)cs1 | active: 12.6 µM
COc1cc(/C=C(\C#N)c2nc3c(s2)CC(C)CC3)ccc1O (centres undefined) | inconclusive [inhibitor, partial curve]
C/C(Cn1cnc([N+](=O)[O-])n1)=N\NC(=O)c1ccc(Br)cc1 | active: 14.1 µM
CCOC(=O)c1c(-n2c(C)cc(C=O)c2C)sc2c1CCCC2 | inconclusive [inhibitor, single point]
Cc1cc(C)nc(N2CCCC(C(=O)Nc3nc4ccc(S(C)(=O)=O)cc4s3)C2)n1 (centres undefined) | inconclusive [inhibitor, single point]
S=C(NCCSCc1c(Cl)cccc1Cl)Nc1ccccc1 | inconclusive [inhibitor, partial curve]
O=C(O)CN1C(=O)/C(=C/c2ccsc2)SC1=S | inactive
